{"source": "paper PMC4336329", "about": "(PLoS ONE, 2015)", "note": "Screen size: about 310,000 compounds; about 14,000 (4.5%) showed an effect of 50% or more. The effect is printed as a negative number. The list shows a part of the results.", "data": [{"molecular_target": "human ether-à-go-go-related gene (hERG) potassium channel (human, UniProt Q12809)", "sequence (Q12809 whole entry, looked up)": "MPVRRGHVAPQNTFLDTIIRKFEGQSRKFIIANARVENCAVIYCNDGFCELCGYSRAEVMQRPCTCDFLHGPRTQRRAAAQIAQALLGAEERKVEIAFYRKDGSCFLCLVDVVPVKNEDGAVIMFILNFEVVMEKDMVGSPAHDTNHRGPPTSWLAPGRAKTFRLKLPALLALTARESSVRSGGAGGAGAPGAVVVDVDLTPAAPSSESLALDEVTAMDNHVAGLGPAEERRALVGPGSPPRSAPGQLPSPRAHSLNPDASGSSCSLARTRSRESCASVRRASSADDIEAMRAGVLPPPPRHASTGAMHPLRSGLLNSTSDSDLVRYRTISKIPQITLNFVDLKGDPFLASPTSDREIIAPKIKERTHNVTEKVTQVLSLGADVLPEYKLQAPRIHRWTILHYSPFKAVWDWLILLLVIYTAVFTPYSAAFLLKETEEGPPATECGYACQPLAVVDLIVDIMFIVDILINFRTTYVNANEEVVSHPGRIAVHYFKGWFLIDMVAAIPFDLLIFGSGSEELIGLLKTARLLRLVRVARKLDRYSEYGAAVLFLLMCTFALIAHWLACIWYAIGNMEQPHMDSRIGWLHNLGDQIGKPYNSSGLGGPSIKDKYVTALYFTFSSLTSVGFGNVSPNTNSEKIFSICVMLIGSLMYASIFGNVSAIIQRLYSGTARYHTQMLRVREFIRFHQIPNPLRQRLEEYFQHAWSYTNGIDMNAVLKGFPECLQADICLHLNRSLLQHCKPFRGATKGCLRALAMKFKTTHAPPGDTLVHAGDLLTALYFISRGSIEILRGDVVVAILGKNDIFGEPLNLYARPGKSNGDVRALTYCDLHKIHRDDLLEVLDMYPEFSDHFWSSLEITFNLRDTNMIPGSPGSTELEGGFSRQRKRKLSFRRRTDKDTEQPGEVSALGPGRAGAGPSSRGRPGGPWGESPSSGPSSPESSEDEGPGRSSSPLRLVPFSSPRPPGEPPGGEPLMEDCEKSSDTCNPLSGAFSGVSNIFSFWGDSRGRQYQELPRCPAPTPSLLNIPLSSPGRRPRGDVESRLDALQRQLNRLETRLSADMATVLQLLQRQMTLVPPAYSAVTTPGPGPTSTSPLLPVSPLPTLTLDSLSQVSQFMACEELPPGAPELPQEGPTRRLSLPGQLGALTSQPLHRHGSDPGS", "assay": "primary screen, population patch clamp on CHO cells stably expressing hERG", "units": {"hERG current change (%, negative = inhibition) at 10uM": "%"}, "values": [{"compound": "Cc1ccccc1-c1nc(CS(=O)CC(=O)NCc2ccccn2)c(C)o1", "note": "(centres unmarked);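 further: peak tail current of the secondary pulse compared with the same well before compound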", "hERG current change (%, negative = inhibition) at 10uM": 12.4}, {"compound": "Oc1ccccc1Oc1ncc(Br)c(N2CCOCC2)n1", "hERG current change (%, negative = inhibition) at 10uM": -35.1}, {"compound": "O=c1[nH]c(/C=C/c2ccc(Br)cc2)nc2ccccc12", "hERG current change (%, negative = inhibition) at 10uM": 9.94}, {"compound": "Cc1c(Br)cc(C(=O)OC2CCN(C)CC2)c(C)c1C", "hERG current change (%, negative = inhibition) at 10uM": -29.9}, {"compound": "Cc1ccc(S(=O)(=O)CCC(=O)OCC(=O)c2ccc(C)c(C)c2)cc1", "hERG current change (%, negative = inhibition) at 10uM": 5.47}, {"compound": "COC(=O)c1ccc(-c2c(-c3ccccc3)ncc3cc(OC)c(OC)cc23)cc1", "hERG current change (%, negative = inhibition) at 10uM": -7.85}, {"compound": "COC(=O)c1ccc(NC(=O)CCn2c(=O)oc3ccccc32)cc1", "hERG current change (%, negative = inhibition) at 10uM": 11.6}, {"compound": "C/C(N)=C(/C#N)C(=O)COC(=O)c1oc2ccccc2c1COC(C)C", "hERG current change (%, negative = inhibition) at 10uM": 11.3}, {"compound": "O=C(Nc1ccn(-c2ccccc2)n1)c1ccc(S(=O)(=O)N2CCCCCC2)cc1", "hERG current change (%, negative = inhibition) at 10uM": -15.4}, {"compound": "O=C(O)c1ccccc1-c1ccccc1C(=O)Nc1cccc2ccccc12", "hERG current change (%, negative = inhibition) at 10uM": 26.6}, {"compound": "C#CCOCCOCCOCCNc1nc(N2CCN(C(=O)[C@H](CCCCN)n3cc([C@@H](N)CC(C)C)nn3)CC2)nc(N2CCN(C(=O)[C@H](Cc3ccc(O)cc3)n3cc([C@@H](N)CC(C)C)nn3)CC2)n1.Cl", "hERG current change (%, negative = inhibition) at 10uM": 7.84}, {"compound": "O=C(NC1CCCC1)C(c1ccncc1)N(C(=O)c1csnn1)c1ccc(Cl)cc1", "note": "(centres unmarked)", "hERG current change (%, negative = inhibition) at 10uM": -10.4}, {"compound": "COc1ccc(OCC(O)CNS(=O)(=O)c2ccc(NC(C)=O)cc2)cc1", "note": "(centres unmarked)", "hERG current change (%, negative = inhibition) at 10uM": 19.4}, {"compound": "C=CCn1c(SCC(=O)NC2CC2)nnc1-c1ccccn1", "hERG current change (%, negative = inhibition) at 10uM": -0.328}, {"compound": "Cl.NCCc1nnc(SCc2ccccc2F)o1", "hERG current change (%, negative = inhibition) at 10uM": 1.82}, {"compound": "CNC(=S)N(Cc1ccc2c(c1)OCO2)C1CC(=O)N(c2ccc(F)cc2)C1=O", "note": "(centres unmarked)", "hERG current change (%, negative = inhibition) at 10uM": 1.94}, {"compound": "COC(=O)c1nn(-c2cccc(C)c2)c2nnc(Cc3ccccc3)c(=O)n12", "hERG current change (%, negative = inhibition) at 10uM": -25.3}, {"compound": "CC(=O)Nc1ccc(S(=O)(=O)N=S(C)C)cc1", "hERG current change (%, negative = inhibition) at 10uM": 2.56}, {"compound": "CCCCOc1ccc(C(=O)N(CC)CC(=O)NCc2cccs2)cc1", "hERG current change (%, negative = inhibition) at 10uM": -19.1}, {"compound": "O=C(Cn1cc2c(n1)CCCCC2)NCc1ccccn1", "hERG current change (%, negative = inhibition) at 10uM": -2.69}, {"compound": "COc1ccccc1CN1CCSCC1", "hERG current change (%, negative = inhibition) at 10uM": 9.45}, {"compound": "COc1ccccc1NS(=O)(=O)c1cccc(C(=O)NCC(c2ccco2)N(C)C)c1", "note": "(centres unmarked)", "hERG current change (%, negative = inhibition) at 10uM": -16}, {"compound": "Nc1n[nH]c(S(=O)(=O)CCCc2ccccc2)n1", "hERG current change (%, negative = inhibition) at 10uM": 4.57}, {"compound": "O=C(CCSCCc1ccccn1)Nc1ccc(Br)cn1", "hERG current change (%, negative = inhibition) at 10uM": -14.1}, {"compound": "FC(F)(F)c1ccccc1/C=N/Nc1ccccn1", "hERG current change (%, negative = inhibition) at 10uM": 22.4}, {"compound": "Nc1nc(-c2cccs2)c(CC(=O)O)s1", "hERG current change (%, negative = inhibition) at 10uM": 18}, {"compound": "CCCCNS(=O)(=O)c1ccc2nc(SCC(=O)N3CC(C)OC(C)C3)[nH]c2c1", "note": "(centres unmarked)", "hERG current change (%, negative = inhibition) at 10uM": -4}, {"compound": "Cc1c(S(=O)(=O)Nc2ccc(Br)cc2)c(=O)n(C)c(=O)n1C", "hERG current change (%, negative = inhibition) at 10uM": 9.99}, {"compound": "O=C(CCCCCNC(=S)Nc1ccccc1)C[N+](=O)[O-]", "hERG current change (%, negative = inhibition) at 10uM": -5.2}, {"compound": "COc1ccc(Nc2nc(N3CCCC3)nc(N3CCOCC3)n2)cc1", "hERG current change (%, negative = inhibition) at 10uM": 3.68}, {"compound": "O=C(Nc1ncc(Cc2ccc(SC(F)F)cc2)s1)c1ccc(OC(F)F)cc1", "hERG current change (%, negative = inhibition) at 10uM": 15.1}, {"compound": "COC(=O)c1ccn(-c2nc(-c3ccco3)cc(C(F)(F)F)n2)n1", "hERG current change (%, negative = inhibition) at 10uM": -16.6}, {"compound": "COC(=O)c1c(NC(=O)CN2C(=O)c3ccccc3C2=O)sc(Cc2ccc3c(c2)OCO3)c1C", "hERG current change (%, negative = inhibition) at 10uM": 5.02}, {"compound": "CCCNC(=O)c1cc2cc([N+](=O)[O-])ccc2s1", "hERG current change (%, negative = inhibition) at 10uM": -9.82}, {"compound": "COc1ccc(CC(=O)OC(C)CN2CCCCC2)cc1", "note": "(centres unmarked)", "hERG current change (%, negative = inhibition) at 10uM": 4.23}, {"compound": "COc1ccc(C(=O)Nn2cc3c(c2-c2ccccc2)c(=O)n(C)c(=O)n3C)cc1", "hERG current change (%, negative = inhibition) at 10uM": 12.4}, {"compound": "CCOC(=O)c1cc2c(=O)n3ccccc3nc2n(CCCOC)c1=NC(=O)c1ccncc1", "hERG current change (%, negative = inhibition) at 10uM": -87.3}, {"compound": "CCCn1c(-c2ccc[nH]c2=O)nc2ccccc21", "hERG current change (%, negative = inhibition) at 10uM": 15.6}, {"compound": "O=C(c1ccc(CNc2c(N3CCCC3)c(=O)c2=O)cc1)N1CCN(C2CCCCC2)CC1", "hERG current change (%, negative = inhibition) at 10uM": 15.7}, {"compound": "Cc1ccc(OCC(O)CN2C(=O)NC(C)(C)C2=O)c(C)c1", "note": "(centres unmarked)", "hERG current change (%, negative = inhibition) at 10uM": 5.9}, {"compound": "Cc1ccc2c(c1)N(C(C)C(=O)N1CCC3(CC1)OCCO3)C(=O)CO2", "note": "(centres unmarked)", "hERG current change (%, negative = inhibition) at 10uM": 15.7}, {"compound": "O=C(NCCNS(=O)(=O)c1ccccc1)c1cc(OCC(F)(F)F)ccc1OCC(F)(F)F", "hERG current change (%, negative = inhibition) at 10uM": 1.66}, {"compound": "Cc1ccc(CSCC(=O)NCCCN2CCOCC2)cc1", "hERG current change (%, negative = inhibition) at 10uM": 11.4}, {"compound": "CC1=C(C(=O)N2CCOCC2)C(c2ccccc2F)C2=C(CC(C)(C)CC2=O)N1", "note": "(centres unmarked)", "hERG current change (%, negative = inhibition) at 10uM": 0.00388}, {"compound": "COc1cc(C(=O)Nc2ccc(N(C)C)cc2)c([N+](=O)[O-])cc1OC", "hERG current change (%, negative = inhibition) at 10uM": 11.6}, {"compound": "COc1ccc(NS(=O)(=O)c2ccc(N3CCCC3=O)cc2)cn1", "hERG current change (%, negative = inhibition) at 10uM": 28.1}, {"compound": "COc1cc(/C=N/N=C/c2c[nH]c(=O)c(C#N)c2Nc2ccccc2)ccc1O", "hERG current change (%, negative = inhibition) at 10uM": -0.474}, {"compound": "Cc1ccc(NC(=O)Cc2nnc(SCC(=O)NC3CCCC3)n2C)cc1", "hERG current change (%, negative = inhibition) at 10uM": 10.1}, {"compound": "Br.CC(C)CC1CC(=O)OC1(C)C(=O)CSc1nc2ccccc2s1", "note": "(centres unmarked)", "hERG current change (%, negative = inhibition) at 10uM": 14.5}, {"compound": "CCCCCNC(=O)c1ccccc1SC", "hERG current change (%, negative = inhibition) at 10uM": 8.32}, {"compound": "CCOc1ccc(CCNC(=O)c2sc3nc4n(c(=O)c3c2C)CCC4)cc1OCC", "hERG current change (%, negative = inhibition) at 10uM": -5.1}, {"compound": "Cc1ccc(N2CC(C(=O)Nc3ccncc3)CC2=O)cc1", "note": "(centres unmarked)", "hERG current change (%, negative = inhibition) at 10uM": -11}, {"compound": "CCC[C@@H]1C[C@@]1(CCC)[C@@H](NP(=O)(c1ccccc1)c1ccccc1)c1ccc(C(=O)OC)cc1", "hERG current change (%, negative = inhibition) at 10uM": 8.49}, {"compound": "C=CCN1CCN(c2ccncc2S(=O)(=O)N2CCCCC2)CC1", "hERG current change (%, negative = inhibition) at 10uM": -7.29}, {"compound": "O=S1(=O)CCC(NC(=S)NC2CCS(=O)(=O)C2)C1", "note": "(centres unmarked)", "hERG current change (%, negative = inhibition) at 10uM": 5.22}, {"compound": "Nc1nnc(CCS(=O)(=O)c2ccc(Cl)cc2)s1", "hERG current change (%, negative = inhibition) at 10uM": -4.86}]}]}
